Measured values from patent publication US20260028391A1.

Target: fusion glycoprotein of the RSV used in the neutralization assay of Example 1 (respiratory syncytial virus (strain not stated))
Test: cell-based or functional assay

B1: MPK202 (antibody, V domains shown)
VH: EVQLVQSGAEVKKTGASVKVSCKVFGDTLTELSMHWVRQAPGKGLEWMGGFHREEGETIYAQKFQGRVTMTEDTSSDTAYMELSSLRSDDTAMYYCATLVDIVVTTAGAGANHYWGQGTMVTVSS
VL: [about 100 residues not shown]FTFGGGTKVEIK
With B1 as the binder, how does the RSV Neutralization - IC50 read?
Its RSV Neutralization - IC50 is 0.5 ng/mL.
